In the RNAGym collection of RNA variant scans (doi:10.7554/elife.90254):
Read counts are not given, so values of variants with three or more changes are uncertain.

B1: LINE1-mini (parent)
chain: GGCAGAGCUCAACACAGCGUGGCAAAGUGGCUGUGGCUAGACUGCC

Variants of: B1
Test: self-cleavage, relative activity (ratio to wild type); higher = more cleavage; in vitro, sequencing; the parent is a self-cleaving ribozyme

Question: Which self-cleavage does the source give for G5U C8A U28C C31U here?
Answer: 0.13

Question: For G5C G22U A26C G40C C42G, which self-cleavage is on record?
Answer: 0.06

Question: Which self-cleavage does the source give for G5C G22C G40A C45A here?
Answer: 0.04

Question: For G5C G22U G27A G35C, which self-cleavage is on record?
Answer: 0.04

Question: For G5C G7U C18A U34C, which self-cleavage is on record?
Answer: 0.05

Question: For G5U A16G U43A G44C, which self-cleavage is on record?
Answer: 0

Question: For G5U C10A A12G G19U G29C C31G, which self-cleavage is on record?
Answer: 0.01

Question: Which self-cleavage does the source give for G5C G36A C37U here?
Answer: 0.67

Question: For G5C C10A U28G C46A, which self-cleavage is on record?
Answer: 0.02

Question: Which self-cleavage does the source give for G5U C15G G21C U32G U38C here?
Answer: 0

Question: With G5C A11G A14U G21C A25C G40U as the variant, how does the self-cleavage read?
Answer: 0

Question: For G5C A6G C23A A25C G33C G36A, which self-cleavage is on record?
Answer: 0.06

Question: With G5C U32A G40U as the variant, how does the self-cleavage read?
Answer: 0.02

Question: For G5U A14C U32G, which self-cleavage is on record?
Answer: 0.03

Question: For G5C U9G A25C, which self-cleavage is on record?
Answer: 0.07

Question: Which self-cleavage does the source give for G5U A6U C8G U34C here?
Answer: 0.02

Question: For G5A U28G C42U, which self-cleavage is on record?
Answer: 0.89

Question: For G5C A12U C23G A25U C42G, which self-cleavage is on record?
Answer: 0.11

Question: Which self-cleavage does the source give for G5C C23G G33C U43C here?
Answer: 0.02

Question: For G5U A6C A16G C18G C23U G30U, which self-cleavage is on record?
Answer: 0.01

Question: With G5C A14U A41C as the variant, how does the self-cleavage read?
Answer: 0.04

Question: For G5C G17C C18A G27U G36A, which self-cleavage is on record?
Answer: 0.04

Question: For G5C A6G A26G U43A G44C, which self-cleavage is on record?
Answer: 0.01

Question: With G5C A26U G35A as the variant, how does the self-cleavage read?
Answer: 0.08

Question: With G5C A6U A16C U20G G35C G44C as the variant, how does the self-cleavage read?
Answer: 0.02

Question: With G5U C8A G22A C31G as the variant, how does the self-cleavage read?
Answer: 0.14

Question: Which self-cleavage does the source give for G5C C18A A24C A25C A26C G29U G36A A41G here?
Answer: 0

Question: With G5C C13G G33A U34A as the variant, how does the self-cleavage read?
Answer: 0.28

Question: With G5U A11U C13U A39U G40A A41C U43G as the variant, how does the self-cleavage read?
Answer: 0.01

Question: With G5U C13A C15A G19C as the variant, how does the self-cleavage read?
Answer: 0.02

Question: For G5U A26C G30C, which self-cleavage is on record?
Answer: 0.05

Question: For G5C C13G C45A, which self-cleavage is on record?
Answer: 0

Question: With G5C C8A C15G as the variant, how does the self-cleavage read?
Answer: 0.05

Question: With G5U A12G G22U C31G as the variant, how does the self-cleavage read?
Answer: 0.03

Question: Which self-cleavage does the source give for G5C C10G A16U G21C here?
Answer: 0.03

Question: For G5U A24U U28C U38G G44U, which self-cleavage is on record?
Answer: 0

Question: Which self-cleavage does the source give for G5U A11C G44A here?
Answer: 0.02

Question: With G5U C8G C10G U38A as the variant, how does the self-cleavage read?
Answer: 0.03

Question: Which self-cleavage does the source give for G5C A26G C31A here?
Answer: 0.07

Question: Which self-cleavage does the source give for G5U A24G G27C U34G C37G here?
Answer: 0.01

Question: Which self-cleavage does the source give for G5U A14G U20A A26G here?
Answer: 0.06

Question: With G5C G29U C42A as the variant, how does the self-cleavage read?
Answer: 0.02

Question: With G5U C13A G30C as the variant, how does the self-cleavage read?
Answer: 0.14

Question: With G5U C10A A24C as the variant, how does the self-cleavage read?
Answer: 0.05

Question: Which self-cleavage does the source give for G5C G21U A41C here?
Answer: 0.08

Question: Which self-cleavage does the source give for G5C A16U C18A here?
Answer: 0.04

Question: For G5C C10U A16G A26G G40C, which self-cleavage is on record?
Answer: 0.02

Question: With G5U A14G C31A as the variant, how does the self-cleavage read?
Answer: 0.04

Question: Which self-cleavage does the source give for G5U A25C C37G here?
Answer: 0.03

Question: Which self-cleavage does the source give for G5U C15A G30C U34G here?
Answer: 0

Question: For G5U C13G G19A, which self-cleavage is on record?
Answer: 0.06

Question: Which self-cleavage does the source give for G5C U9A A26C here?
Answer: 0.03

Question: With G5U A12G G22A G29A U43A G44U as the variant, how does the self-cleavage read?
Answer: 0.02

Question: With G5C C10A A25C C31A C42A as the variant, how does the self-cleavage read?
Answer: 0.01

Question: For G5U A11G A12U, which self-cleavage is on record?
Answer: 0.09

Question: For G5C U20A A41G, which self-cleavage is on record?
Answer: 0.02

Question: With G5U A6U A26U C31U C46U as the variant, how does the self-cleavage read?
Answer: 0.03

Question: Which self-cleavage does the source give for G5U C8G A14C A39C G40C here?
Answer: 0.02

Question: With G5U C8G C18G C37G U43A as the variant, how does the self-cleavage read?
Answer: 0.04

Question: For G5C G35A C45A, which self-cleavage is on record?
Answer: 0.05

Question: For G5C A14U G40A C46G, which self-cleavage is on record?
Answer: 0.01

Question: Which self-cleavage does the source give for G5U C13A C18U U32C G33A U38C A41C here?
Answer: 0.01

Question: For G5U C8G C15G C23U U28A U34G, which self-cleavage is on record?
Answer: 0.04

Question: For G5C G27C G40C, which self-cleavage is on record?
Answer: 0.2

Question: For G5C G40A G44C, which self-cleavage is on record?
Answer: 0.04

Question: Which self-cleavage does the source give for G5C C15G G21U here?
Answer: 0.03

Question: Which self-cleavage does the source give for G5C C23U U38C here?
Answer: 0.02

Question: Which self-cleavage does the source give for G5C G7C C13U C31U here?
Answer: 0.1

Question: For G5U A14G G17U U43A C45A, which self-cleavage is on record?
Answer: 0.05

Question: Which self-cleavage does the source give for G5C G19C U32A here?
Answer: 0.01

Question: With G5U A16G G44C as the variant, how does the self-cleavage read?
Answer: 0.01

Question: Which self-cleavage does the source give for G5U C8U A12U A16G G36A G44A here?
Answer: 0.02

Question: Which self-cleavage does the source give for G5C C10G A16C A41U here?
Answer: 0.02

Question: For G5C C13A C15A G44U, which self-cleavage is on record?
Answer: 0.02

Question: With G5U C15U G35U C37U U43A as the variant, how does the self-cleavage read?
Answer: 0.07

Question: Which self-cleavage does the source give for G5U A6U C13G G19C G30U here?
Answer: 0.1

Question: With G5C G27C G35U C37G as the variant, how does the self-cleavage read?
Answer: 0.12

Question: With G5C G29U C37U as the variant, how does the self-cleavage read?
Answer: 0.04

Question: For G5C G33U C37A, which self-cleavage is on record?
Answer: 0.04

Question: With G5U C10G G22A A39G as the variant, how does the self-cleavage read?
Answer: 0.02

Question: Which self-cleavage does the source give for G5C A14G U38C here?
Answer: 0.03

Question: Which self-cleavage does the source give for G5C G29U U34A here?
Answer: 0.18

Question: For G5C C13U C18A, which self-cleavage is on record?
Answer: 0.02
